This is one part of the list. The list includes weakly bound sequences.
Each sequence was assayed against T1, MBP-FoxP3dN (UniProt Q99JB6) (assay: PD-seq (MBP pull-down with sequencing)). Settings: 20 mM Tris-HCl pH 7.5, 100 mM NaCl, 1.5 mM MgCl2, 0.4 uM protein, 0.1 uM dsDNA library, 30 min, room temperature, amylose pull-down; high values mean tight binding; double strand, one strand shown.
T1 sequence: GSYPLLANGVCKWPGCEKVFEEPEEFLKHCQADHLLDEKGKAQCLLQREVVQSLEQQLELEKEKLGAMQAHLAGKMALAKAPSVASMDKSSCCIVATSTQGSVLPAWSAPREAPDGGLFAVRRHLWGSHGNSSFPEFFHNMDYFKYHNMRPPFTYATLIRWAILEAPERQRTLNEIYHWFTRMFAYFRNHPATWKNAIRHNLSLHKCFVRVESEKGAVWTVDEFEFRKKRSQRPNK

Sequence | binding signal (RPM ratio (pull-down/input))
GATGATTGTTCTCCCAGCTGATGAATTTCAGTTATCGAGTAAACAAATTTTCCTAATCTTTCTGTTCAAGCGCCATCTAC | 0.75
GATGATTGTTCTCCCAGCTGATGAATTTGGTAAATCGAGTAAACAAATTTTCCTAATCTTTCTGTTCAAGCGCCATCTAC | 0.381
GATGATTGTTCTCCCAGCTGATGAATTTTACAGATCGAGTAAACAAATTTTCCTAATCTTTCTGTTCAAGCGCCATCTAC | 0.189
GATGATTGTTCTCCCAGCTGATGAATTGAGGATATCGAGTAAACAAATTTTCCTAATCTTTCTGTTCAAGCGCCATCTAC | 0.365
GATGATTGTTCTCCCAGCTGATGAATTTACCCAGTCGAGTAAACAAATTTTCCTAATCTTTCTGTTCAAGCGCCATCTAC | 0.258
GATGATTGTTCTCCCAGCTGATGAATTGGGCAGTTCGAGTAAACAAATTTTCCTAATCTTTCTGTTCAAGCGCCATCTAC | 0.742
GATGATTGTTCTCCCAGCTGATGAATTCAACTGATCGAGTAAACAAATTTTCCTAATCTTTCTGTTCAAGCGCCATCTAC | 0.332
GATGATTGTTCTCCCAGCTGATGAATTGCCCTCTTCGAGTAAACAAATTTTCCTAATCTTTCTGTTCAAGCGCCATCTAC | 0.507
GATGATTGTTCTCCCAGCTGATGAATTACAGCCTTCGAGTAAACAAATTTTCCTAATCTTTCTGTTCAAGCGCCATCTAC | 1.66
GATGATTGTTCTCCCAGCTGATGAATTCGTAATGTCGAGTAAACAAATTTTCCTAATCTTTCTGTTCAAGCGCCATCTAC | 0.723
GATGATTGTTCTCCCAGCTGATGAATTTGCACGGTCGAGTAAACAAATTTTCCTAATCTTTCTGTTCAAGCGCCATCTAC | 0.508
GATGATTGTTCTCCCAGCTGATGAATTTGTGCCATCGAGTAAACAAATTTTCCTAATCTTTCTGTTCAAGCGCCATCTAC | 3.78
GATGATTGTTCTCCCAGCTGATGAATTTGGGCCATCGAGTAAACAAATTTTCCTAATCTTTCTGTTCAAGCGCCATCTAC | 1.22
GATGATTGTTCTCCCAGCTGATGAATTTTGACACTCGAGTAAACAAATTTTCCTAATCTTTCTGTTCAAGCGCCATCTAC | 2.91
GATGATTGTTCTCCCAGCTGATGAATTGACTGTTTCGAGTAAACAAATTTTCCTAATCTTTCTGTTCAAGCGCCATCTAC | 0.564
GATGATTGTTCTCCCAGCTGATGAATTTAATAGCTCGAGTAAACAAATTTTCCTAATCTTTCTGTTCAAGCGCCATCTAC | 1.63
GATGATTGTTCTCCCAGCTGATGAATTGGAAGGATCGAGTAAACAAATTTTCCTAATCTTTCTGTTCAAGCGCCATCTAC | 0.193
GATGATTGTTCTCCCAGCTGATGAATTCGTGCTCTCGAGTAAACAAATTTTCCTAATCTTTCTGTTCAAGCGCCATCTAC | 0.608
GATGATTGTTCTCCCAGCTGATGAATTCCTTACTTCGAGTAAACAAATTTTCCTAATCTTTCTGTTCAAGCGCCATCTAC | 0.246
GATGATTGTTCTCCCAGCTGATGAATTTGAGAGATCGAGTAAACAAATTTTCCTAATCTTTCTGTTCAAGCGCCATCTAC | 0.232
GATGATTGTTCTCCCAGCTGATGAATTATCCGGGTCGAGTAAACAAATTTTCCTAATCTTTCTGTTCAAGCGCCATCTAC | 0.173

Sequence | binding signal (RPM ratio (pull-down/input))
GATGATTGTTCTCCCAGCTGATGAATTAGGGAAGTCGAGTAAACAAATTTTCCTAATCTTTCTGTTCAAGCGCCATCTAC | 0.209
GATGATTGTTCTCCCAGCTGATGAATTATACGCCTCGAGTAAACAAATTTTCCTAATCTTTCTGTTCAAGCGCCATCTAC | 0.63
GATGATTGTTCTCCCAGCTGATGAATTGGTTGCGTCGAGTAAACAAATTTTCCTAATCTTTCTGTTCAAGCGCCATCTAC | 1.98
GATGATTGTTCTCCCAGCTGATGAATTGCCGGACTCGAGTAAACAAATTTTCCTAATCTTTCTGTTCAAGCGCCATCTAC | 0.37
GATGATTGTTCTCCCAGCTGATGAATTACGCAAGTCGAGTAAACAAATTTTCCTAATCTTTCTGTTCAAGCGCCATCTAC | 1.91
GATGATTGTTCTCCCAGCTGATGAATTGACTATATCGAGTAAACAAATTTTCCTAATCTTTCTGTTCAAGCGCCATCTAC | 0.464
GATGATTGTTCTCCCAGCTGATGAATTTGAAAGATCGAGTAAACAAATTTTCCTAATCTTTCTGTTCAAGCGCCATCTAC | 0.178
GATGATTGTTCTCCCAGCTGATGAATTGTTCAATTCGAGTAAACAAATTTTCCTAATCTTTCTGTTCAAGCGCCATCTAC | 0.409
GATGATTGTTCTCCCAGCTGATGAATTTCTCATATCGAGTAAACAAATTTTCCTAATCTTTCTGTTCAAGCGCCATCTAC | 0.364
GATGATTGTTCTCCCAGCTGATGAATTATATTTGTCGAGTAAACAAATTTTCCTAATCTTTCTGTTCAAGCGCCATCTAC | 5.66
GATGATTGTTCTCCCAGCTGATGAATTGGTGTCGTCGAGTAAACAAATTTTCCTAATCTTTCTGTTCAAGCGCCATCTAC | 1.18
GATGATTGTTCTCCCAGCTGATGAATTAGCGGTTTCGAGTAAACAAATTTTCCTAATCTTTCTGTTCAAGCGCCATCTAC | 0.702
GATGATTGTTCTCCCAGCTGATGAATTGGACTCCTCGAGTAAACAAATTTTCCTAATCTTTCTGTTCAAGCGCCATCTAC | 0.395
GATGATTGTTCTCCCAGCTGATGAATTGGGTACTTCGAGTAAACAAATTTTCCTAATCTTTCTGTTCAAGCGCCATCTAC | 0.488
GATGATTGTTCTCCCAGCTGATGAATTGCCCTCATCGAGTAAACAAATTTTCCTAATCTTTCTGTTCAAGCGCCATCTAC | 0.621
GATGATTGTTCTCCCAGCTGATGAATTGGCCAGATCGAGTAAACAAATTTTCCTAATCTTTCTGTTCAAGCGCCATCTAC | 0.202
GATGATTGTTCTCCCAGCTGATGAATTGTCCGATTCGAGTAAACAAATTTTCCTAATCTTTCTGTTCAAGCGCCATCTAC | 0.288
GATGATTGTTCTCCCAGCTGATGAATTTTGACATTCGAGTAAACAAATTTTCCTAATCTTTCTGTTCAAGCGCCATCTAC | 2.04
GATGATTGTTCTCCCAGCTGATGAATTGGAATGGTCGAGTAAACAAATTTTCCTAATCTTTCTGTTCAAGCGCCATCTAC | 0.373
GATGATTGTTCTCCCAGCTGATGAATTATTGCGCTCGAGTAAACAAATTTTCCTAATCTTTCTGTTCAAGCGCCATCTAC | 1.24
GATGATTGTTCTCCCAGCTGATGAATTTCGTAGGTCGAGTAAACAAATTTTCCTAATCTTTCTGTTCAAGCGCCATCTAC | 0.422

Sequence | binding signal (RPM ratio (pull-down/input))
GATGATTGTTCTCCCAGCTGATGAATTTAATGATTCGAGTAAACAAATTTTCCTAATCTTTCTGTTCAAGCGCCATCTAC | 1.64
GATGATTGTTCTCCCAGCTGATGAATTATAAAAGTCGAGTAAACAAATTTTCCTAATCTTTCTGTTCAAGCGCCATCTAC | 0.212
GATGATTGTTCTCCCAGCTGATGAATTTGCCATGTCGAGTAAACAAATTTTCCTAATCTTTCTGTTCAAGCGCCATCTAC | 1.45
GATGATTGTTCTCCCAGCTGATGAATTCCGACACTCGAGTAAACAAATTTTCCTAATCTTTCTGTTCAAGCGCCATCTAC | 1.97
GATGATTGTTCTCCCAGCTGATGAATTGAATGCATCGAGTAAACAAATTTTCCTAATCTTTCTGTTCAAGCGCCATCTAC | 2.15
GATGATTGTTCTCCCAGCTGATGAATTGCCCTTGTCGAGTAAACAAATTTTCCTAATCTTTCTGTTCAAGCGCCATCTAC | 0.446
GATGATTGTTCTCCCAGCTGATGAATTGTCCAAATCGAGTAAACAAATTTTCCTAATCTTTCTGTTCAAGCGCCATCTAC | 0.312
GATGATTGTTCTCCCAGCTGATGAATTGCAATACTCGAGTAAACAAATTTTCCTAATCTTTCTGTTCAAGCGCCATCTAC | 1.55
GATGATTGTTCTCCCAGCTGATGAATTCGATTGGTCGAGTAAACAAATTTTCCTAATCTTTCTGTTCAAGCGCCATCTAC | 3.14
GATGATTGTTCTCCCAGCTGATGAATTCAGGATGTCGAGTAAACAAATTTTCCTAATCTTTCTGTTCAAGCGCCATCTAC | 0.37
GATGATTGTTCTCCCAGCTGATGAATTCACGCTATCGAGTAAACAAATTTTCCTAATCTTTCTGTTCAAGCGCCATCTAC | 0.944
GATGATTGTTCTCCCAGCTGATGAATTGCGGATATCGAGTAAACAAATTTTCCTAATCTTTCTGTTCAAGCGCCATCTAC | 0.849
GATGATTGTTCTCCCAGCTGATGAATTATTGCGATCGAGTAAACAAATTTTCCTAATCTTTCTGTTCAAGCGCCATCTAC | 1.08
GATGATTGTTCTCCCAGCTGATGAATTGAGCATCTCGAGTAAACAAATTTTCCTAATCTTTCTGTTCAAGCGCCATCTAC | 6.26
GATGATTGTTCTCCCAGCTGATGAATTGTCAAACTCGAGTAAACAAATTTTCCTAATCTTTCTGTTCAAGCGCCATCTAC | 0.314
GATGATTGTTCTCCCAGCTGATGAATTACGGCCGTCGAGTAAACAAATTTTCCTAATCTTTCTGTTCAAGCGCCATCTAC | 0.423
GATGATTGTTCTCCCAGCTGATGAATTCACGAGCTCGAGTAAACAAATTTTCCTAATCTTTCTGTTCAAGCGCCATCTAC | 0.201
GATGATTGTTCTCCCAGCTGATGAATTACATTCCTCGAGTAAACAAATTTTCCTAATCTTTCTGTTCAAGCGCCATCTAC | 0.575
GATGATTGTTCTCCCAGCTGATGAATTGCCGAAATCGAGTAAACAAATTTTCCTAATCTTTCTGTTCAAGCGCCATCTAC | 0.5
GATGATTGTTCTCCCAGCTGATGAATTTTATCCATCGAGTAAACAAATTTTCCTAATCTTTCTGTTCAAGCGCCATCTAC | 0.449
GATGATTGTTCTCCCAGCTGATGAATTTTATGGCTCGAGTAAACAAATTTTCCTAATCTTTCTGTTCAAGCGCCATCTAC | 0.599
